# In all, about 33,000 sequences were measured (“E-score (-0.5 to 0.5)”: median about -0.011, highest 2% from about 0.28 on). This is one part of the list.
# Target: T1, Gcr1 (UniProt P07261)
# T1 sequence: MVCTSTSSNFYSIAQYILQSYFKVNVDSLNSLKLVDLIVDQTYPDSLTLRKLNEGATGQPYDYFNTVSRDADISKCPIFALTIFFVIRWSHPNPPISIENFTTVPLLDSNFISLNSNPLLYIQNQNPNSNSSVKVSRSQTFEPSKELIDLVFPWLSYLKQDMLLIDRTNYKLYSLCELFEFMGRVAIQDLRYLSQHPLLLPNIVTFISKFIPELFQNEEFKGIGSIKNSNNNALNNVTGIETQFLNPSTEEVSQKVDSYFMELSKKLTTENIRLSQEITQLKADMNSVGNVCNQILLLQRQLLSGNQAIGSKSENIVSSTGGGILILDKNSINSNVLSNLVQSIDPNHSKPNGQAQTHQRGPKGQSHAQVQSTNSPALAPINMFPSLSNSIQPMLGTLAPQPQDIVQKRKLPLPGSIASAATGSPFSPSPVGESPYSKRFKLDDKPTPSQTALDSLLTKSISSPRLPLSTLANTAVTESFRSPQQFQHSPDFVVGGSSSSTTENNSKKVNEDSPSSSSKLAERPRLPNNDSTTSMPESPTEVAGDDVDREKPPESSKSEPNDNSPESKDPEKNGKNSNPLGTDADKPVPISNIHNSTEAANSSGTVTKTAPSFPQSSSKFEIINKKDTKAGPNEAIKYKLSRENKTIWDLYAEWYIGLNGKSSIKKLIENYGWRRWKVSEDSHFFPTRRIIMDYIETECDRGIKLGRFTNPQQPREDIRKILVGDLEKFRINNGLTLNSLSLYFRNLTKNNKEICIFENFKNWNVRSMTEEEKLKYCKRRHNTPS
# Assay: PBM E-score (8-mer binding enrichment) (E-score (-0.5 to 0.5)); higher = stronger / more preferred TF binding; most listed sequences are background and not binding sites
# Conditions: protein concentration: 100 nM; construct: GST-full length
# How it was run: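 Using PURExpress in vitro transcription/translation, GST-tagged yeast transcription factors were made in full-length or DNA-binding-domain form. These were applied at about 100-200 nM to double-stranded universal all-10-mer Agilent arrays, and bound protein was detected with fluorescent anti-GST. Scans were normalised with masliner before the Universal PBM Analysis Suite assigned E-scores to ungapped eight-base words pooled with their reverse complements.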
row,Sequence,PBM E-score
1,ATGATGTG,0.175
2,AACGTAAA,0.122
3,GTGAACGA,0.0611
4,GCTTTTAC,0.141
5,CCATCGGA,-0.0523
6,CTCGTGAA,-0.0358
7,GCGGTTAA,-0.0577
8,GACCTAGC,-0.152
9,CACGAGAA,-0.0173
10,CGATCGAG,-0.26
11,GCATAACA,-0.104
12,ATTGATGC,0.137
13,ACGGTTTA,-0.0632
14,ACTTATCT,0.199
15,CCGGCACA,-0.108
16,ATATAAAA,0.263
17,AGAGGCCG,-0.0292
18,AGGCCAAC,-0.192
19,GTTGTTTA,0.0582
20,CGAGACAC,-0.141
21,CAGACCGG,-0.192
22,CTGAATCA,0.147
23,GCATGGAC,-0.119
24,AGCGTGTG,-0.0337
25,CAACGACG,-0.109

row,Sequence,PBM E-score
1,ATAAACGA,0.246
2,CATGCCCA,-0.155
3,ACGAAAGG,-0.0301
4,CCCTAATC,0.027
5,GCGGCCGC,-0.0199
6,ACACTCAT,-0.0199
7,ACGAAGTC,0.107
8,ATCTTGGA,0.143
9,ACTCTAGA,-0.0599
10,ACTGAACG,-0.123
11,GTGACAGA,-0.116
12,ACGCTGGC,0.0265
13,AAGTACGC,-0.0784
14,ATTGTACA,-0.0854
15,TTATGCAA,-0.111
16,CTTGAGGC,-0.0269
17,AACAGTAC,-0.11
18,CCGACCCA,-0.0324
19,GACTGTGC,-0.256
20,CCCCTGCG,-0.167
21,CAAAGGCC,-0.305
22,ACGGGCCA,-0.0346
23,CGCCGGCA,0.159
24,ACTTGAGG,-0.228
25,GCTGCACA,0.0585

row,Sequence,PBM E-score
1,ACCTAACA,0.157
2,CAAGGACG,-0.0704
3,GAAACGAC,-0.0115
4,ACCCCGTA,-0.0035
5,AAAAAAAC,0.115
6,GAATAGCA,0.125
7,GTAGTTTA,0.103
8,CCTTTTTC,0.0572
9,CCTGTCGC,-0.0564
10,AGAATTCT,0.224
11,ATGTCTGG,0.0464
12,AGGGAATG,-0.212
13,AGACTTTA,-0.158
14,AGCACAGA,-0.0174
15,GAAATCTA,0.0966
16,AGACAGTG,0.00806
17,ACAGTACA,-0.125
18,AATTGTCC,0.0115
19,CCTGATTA,0.127
20,AGATCGGA,0.0505
21,CCGCACAC,-0.0537
22,CAAATCAA,-0.0296
23,CAAGTATG,0.038
24,TCGAGCGA,-0.176
25,ACACAAAG,-0.0888

row,Sequence,PBM E-score
1,AGCCTCCC,0.108
2,ATACACTA,0.0688
3,CCGACTGA,-0.0839
4,AATAGGGT,0.127
5,CCGACGCC,0.233
6,CACACTCA,-0.0795
7,CCCGGGCC,-0.197
8,ATGTGGCG,-0.0124
9,GTGTATAA,-0.0442
10,GCCCTCGC,-0.0477
11,ATAGTCAT,-0.09
12,AAAAGCCT,-0.229
13,CCCCCCCG,-0.219
14,ATTCGCGA,0.0371
15,AATCCTTA,0.0501
16,CCTTTAAC,0.147
17,AGCCTTTC,-0.18
18,GAAGTCAA,0.297
19,ATTCAACA,-0.0831
20,CAGATATA,-0.0372
21,CACGCTCC,-0.0164
22,CGAATCCG,0.119
23,ATGTCTGA,0.0619
24,CAGTGAAA,-0.00452
25,ACTGTTAC,0.00344

row,Sequence,PBM E-score
1,AAGCTCGA,0.0832
2,CGCATGTA,-0.278
3,CGTACAAG,0.11
4,CTAATTCA,0.178
5,AGTTATAA,0.139
6,ATGTCGTG,-0.0049
7,GGTTTGGA,0.115
8,CCATTTTC,0.176
9,AGTTATGC,-0.0314
10,ACCGCCTA,-0.0925
11,ACAGCACC,0.187
12,ACAGCCGG,0.117
13,ACCAAGCA,0.175
14,CATATTAA,0.134
15,CTCAAGGC,-0.0689
16,ATACACTC,-0.158
17,GACGCGGA,-0.0936
18,CAACGTCG,0.021
19,ATCCCATG,-0.0862
20,ATGTGCTC,-0.155
21,GTCCTCAA,-0.0769
22,AATTCTGA,0.113
23,CGGGTCCC,0.223
24,GTGAGGGA,-0.0881
25,TAAGCACA,-0.0341

row,Sequence,PBM E-score
1,AGGAGAAC,-0.0959
2,CGTTGTAC,-0.0675
3,ATGGAGTA,-0.0448
4,GCGTATAC,0.156
5,GGTCAGCA,-0.146
6,CCGCATAC,0.124
7,ATCCAGCA,0.235
8,AAGTACAC,0.0261
9,CTCGTCTA,0.0411
10,AACGGCTA,-0.0206
11,ATAGGCCC,-0.0888
12,AAGCAATA,0.0262
13,GTCCTCAC,-0.14
14,CGCTAGTC,-0.153
15,GGCAGAAA,-0.032
16,GACGAACA,-0.0927
17,ATTCAAGA,0.12
18,AGTTGGGG,-0.0265
19,AGAGAGCT,-0.208
20,CCAGGCCG,-0.117
21,CGCACATA,-0.264
22,CAAAAGGA,0.156
23,GGTCCTTA,0.0824
24,AGATTCCG,0.284
25,ACTGCTCA,-0.0624

row,Sequence,PBM E-score
1,CCCTCTTC,-0.0518
2,ATTCCCAA,0.162
3,GCGGGCCC,0.187
4,ATCCAAAT,0.224
5,TGACTCAA,-0.115
6,ATCGCATA,0.0722
7,GAAAACCA,0.084
8,ATGGGATA,0.166
9,GTTTTTCA,0.171
10,CTCCTTAC,-0.0603
11,AGCGTCCT,0.426
12,AGTTCCGC,-0.0461
13,ACGAGGAT,-0.0152
14,ACATTAAC,0.018
15,CCCCCGGG,-0.05
16,TCGTGACA,0.0544
17,AGAAGTAT,-0.0844
18,CGCGTAGA,0.0326
19,ACCGAAGG,-0.119
20,GAGGTGGA,-0.221
21,GCCGAGGA,-0.132
22,AGAAGGTC,-0.261

# Source: the supplement of paper PMC3334620
